The values that follow come from article PMC4336329 (PLoS ONE, 2015).

Screen size: about 310,000 compounds; about 14,000 (4.5%) showed an effect of 50% or more. Effects have a minus sign here. The list shows a part of the results.
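Note: peak tail current of the secondary pulse compared with the same well before compound.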

For this test, the target named is human ether-à-go-go-related gene (hERG) potassium channel (human, UniProt Q12809). Kind of test: primary screen, population patch clamp on CHO cells stably expressing hERG.
Sequence of human ether-à-go-go-related gene (hERG) potassium channel (Q12809 whole entry, looked up): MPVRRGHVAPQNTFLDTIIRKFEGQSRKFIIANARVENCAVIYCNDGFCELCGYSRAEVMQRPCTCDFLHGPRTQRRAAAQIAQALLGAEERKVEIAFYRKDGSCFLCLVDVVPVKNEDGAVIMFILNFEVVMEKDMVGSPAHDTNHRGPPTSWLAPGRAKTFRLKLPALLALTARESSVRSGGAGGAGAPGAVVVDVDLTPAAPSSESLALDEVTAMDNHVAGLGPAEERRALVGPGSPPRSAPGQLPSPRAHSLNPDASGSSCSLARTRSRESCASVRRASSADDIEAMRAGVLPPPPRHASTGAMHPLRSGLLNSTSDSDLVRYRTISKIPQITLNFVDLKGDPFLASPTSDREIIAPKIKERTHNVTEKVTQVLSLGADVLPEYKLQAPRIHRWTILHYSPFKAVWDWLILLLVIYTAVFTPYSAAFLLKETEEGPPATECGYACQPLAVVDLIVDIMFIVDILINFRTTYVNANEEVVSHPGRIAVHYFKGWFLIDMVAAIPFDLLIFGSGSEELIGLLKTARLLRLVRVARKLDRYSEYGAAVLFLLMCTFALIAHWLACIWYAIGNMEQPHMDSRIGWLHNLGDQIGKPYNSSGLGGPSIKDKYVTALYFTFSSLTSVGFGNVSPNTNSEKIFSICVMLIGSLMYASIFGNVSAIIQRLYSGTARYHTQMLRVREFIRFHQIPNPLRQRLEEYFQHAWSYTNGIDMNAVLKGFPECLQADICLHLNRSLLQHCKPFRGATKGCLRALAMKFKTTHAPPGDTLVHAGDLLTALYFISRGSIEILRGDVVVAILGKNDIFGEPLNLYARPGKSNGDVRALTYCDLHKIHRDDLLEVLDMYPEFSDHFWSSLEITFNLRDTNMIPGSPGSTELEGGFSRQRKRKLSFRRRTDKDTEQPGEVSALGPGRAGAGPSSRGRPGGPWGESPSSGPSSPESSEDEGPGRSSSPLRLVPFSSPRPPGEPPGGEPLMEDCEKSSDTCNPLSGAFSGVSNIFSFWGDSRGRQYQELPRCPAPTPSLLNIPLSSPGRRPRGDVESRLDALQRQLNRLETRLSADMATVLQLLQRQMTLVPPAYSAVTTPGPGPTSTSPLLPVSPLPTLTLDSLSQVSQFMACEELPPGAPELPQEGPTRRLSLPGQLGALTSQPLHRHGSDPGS
`Cc1ccc2nc(SC(C(=O)c3ccccc3)c3ccccc3)nc(C)c2c1` (stereo not shown): the “hERG current change (%, negative = inhibition) at 10uM” value is given as 4.7%.
The value for `O=C(Nc1ccccc1OC(F)F)c1ccccc1` was 11.5%; that for `CC(C)CNC(=O)c1cccc(NC(=O)CSc2ccccc2)c1` was -13%.
The value for `Cc1ccc(CCNS(=O)(=O)c2c(C)nc3sccn3c2=O)cc1` was -9.27%; that for `CCOC(=O)C1=C(c2ccccc2)NC(=O)NC1c1cc(OC)c(OC)c(OC)c1` (stereo not shown) was 11.1%.
On to `CC1(NC(=O)c2ccccc2)CCN(CCCc2ccccc2)C1=O` (stereo not shown), for which the “hERG current change (%, negative = inhibition) at 10uM” value amounted to 10%.
As to `CCOC(=O)c1c(C=O)c2ccccc2n1Cc1ccccc1`, the “hERG current change (%, negative = inhibition) at 10uM” value is reported as 1.88%.
The value for `COC(=O)c1cc(NC(=O)CN(c2ccc3c(c2)OCO3)S(C)(=O)=O)ccc1Cl` was -8.58%; that for `COc1ccc(/C(C)=N/NC(=O)CN(c2ccc(OC)cc2)S(=O)(=O)c2ccccc2)cc1` was 29.1%.
As for `Cc1ccc(-c2nc(SCC(=O)Nc3cc(S(=O)(=O)N4CCCCC4)ccc3Cl)n[nH]2)cc1`, the “hERG current change (%, negative = inhibition) at 10uM” value was -5.01%.
For the molecule `CCC(C(=O)NC1CCCC1)N(C(=O)Cn1nnc(-c2ccc(C)o2)n1)c1ccc(OC)cc1` (stereo not shown), the “hERG current change (%, negative = inhibition) at 10uM” value worked out at 5.12%.
The value for `Cn1c(O)c(N=NC(=O)CNC(=O)c2ccco2)c2ccccc21` was 0.0891%; that for `O=C(N/C(=C\c1cccc(Br)c1)C(=O)N1CCCCC1)c1ccco1` was -0.311%; that for `CCOc1ccccc1Nc1nnc(C)c(=O)[nH]1` was 9.4%.
With `COc1ccc(OC)c(/C=N\NC(=O)c2ccc(COc3ccc(C)cc3[N+](=O)[O-])o2)c1`, the “hERG current change (%, negative = inhibition) at 10uM” value stood at 16.2%.
Next, `O=C(COc1ccc([N+](=O)[O-])cc1)NNC(=O)c1cccnc1`: 13.2%; `O=C(COc1cccc(Cl)c1)Nc1ccc(N2CCOCC2)cc1`: 0.239%; `CC1(C)OC(=O)C(=Cc2ccc[nH]2)C(=O)O1`: 0.66%.
Next, `COc1ccccc1CCc1nnc(CCC(=O)NC(C)Cc2cccnc2)o1` (stereo not shown): 13.2%.
The value for `Cc1ccc(C(=O)Nc2ccc(CN3CCCCC3)cc2)c(C)c1` was -35.2%.
On to `Cl.O=C1CC(c2ccccc2)CC2=C1CN(C1CCCCC1)CN2` (stereo not shown), for which the “hERG current change (%, negative = inhibition) at 10uM” value was determined as 14.8%.
Regarding `COC(=O)C1=C(c2cccc(C#N)c2)C[C@@H]2CC[C@H]1N2C(=O)NCCOc1ccccc1Cl`, the “hERG current change (%, negative = inhibition) at 10uM” value is on record as -24.8%.
Take `CNc1nc(SCC(=O)OC)nc(N2CCOCC2)n1`: the “hERG current change (%, negative = inhibition) at 10uM” value is on record as 11.3%.
Next, `O=C1CCc2cc(S(=O)(=O)NC3CCCCC3)ccc2N1`: -19.3%; `OC1(c2cccnc2)CCN(Cc2nnnn2Cc2ccccc2)CC1`: -1.59%; `Cc1cc(=O)[nH]c(SCCOc2ccc3c(c2)CCC3)n1`: 13.1%.
As for `CCC(C)NC(=O)NC(=O)CSc1nnc(-c2ccccc2F)n1C1CC1` (stereo not shown), the “hERG current change (%, negative = inhibition) at 10uM” value was 12.1%.
`CC(Cc1cccs1)NC(=O)Nc1ccc(F)cc1` (stereo not shown): the “hERG current change (%, negative = inhibition) at 10uM” value was 18.2%.
Regarding `O=C(N/C(=C\c1ccco1)C(=O)N1CCC(O)CC1)c1ccccc1`, the “hERG current change (%, negative = inhibition) at 10uM” value is given as 27.7%.
Next, `O=C1C=C(c2ccc(-c3ccccc3)cc2)C[C@@H](c2ccc(Cl)cc2)C1`: 21.8%; `Cc1cccc(-n2c(=O)[nH]c3c(C(N)=O)nc(-c4ccccc4Cl)nc32)c1`: -2.8%.
In the case of `CC(CNCc1ccc2c(c1)OCO2)NCc1ccc2c(c1)OCO2` (stereo not shown), the “hERG current change (%, negative = inhibition) at 10uM” value is -54.5%.
Next, `CC(=O)N(/N=C/c1ccc(C)cc1)c1nc(CCl)cs1`: -8%.
`CCn1c(=O)c(C(=O)CN2CCCc3ccccc32)c(N)n(Cc2ccccc2)c1=O`: the “hERG current change (%, negative = inhibition) at 10uM” value was -6.1%.
The value for `O=C(O)C1CC=CCC1C(=O)N1CCN(c2nc(-c3ccccc3Cl)c3cc(Br)ccc3n2)CC1` (stereo not shown) was -19.3%; that for `O=C(Nc1ccc(-c2ccc3nncn3n2)cc1)C1CCCC1` was -25.9%.
On to `Cc1cc(C)c2oc(-c3ccc(Cl)c(NC(=O)c4ccc(C#N)cc4F)c3)nc2c1`, for which the “hERG current change (%, negative = inhibition) at 10uM” value was -6.92%.
Next, `COc1ccc(C(CC(=O)[O-])NS(=O)(=O)c2ccc(C)cc2)cc1.[Na+]` (stereo not shown): -2.43%; `COc1ccc(C2SCCN2S(=O)(=O)c2ccc(NC(C)=O)cc2)cc1` (stereo not shown): -10.4%; `CCOCCCNC(=O)/C(C#N)=C/c1cc(C)c(O)c(C)c1`: 11.9%.
Next, `O=C1NCCCC1C(=O)N/N=C/c1cc([N+](=O)[O-])ccc1O` (stereo not shown): 6.07%; `CN1CCN(c2ccccc2NC(=O)c2ccc([N+](=O)[O-])cc2Cl)CC1`: -34.9%; `Cc1nn(CCC#N)c(N)c1C1(O)C(=O)Nc2c(Cl)cc(Cl)cc21` (stereo not shown): 6.93%.
